{
  "source": "paper PMC4336329",
  "about": "(PLoS ONE, 2015)",
  "note": "About 2,200 (0.71%) of roughly 310,000 compounds showed an effect of 50% or more. The effect is printed as a negative number. The list shows a part of the results.",
  "data": [
    {"target": "human ether-à-go-go-related gene (hERG) potassium channel (human, UniProt Q12809)", "sequence (Q12809 whole entry, looked up)": "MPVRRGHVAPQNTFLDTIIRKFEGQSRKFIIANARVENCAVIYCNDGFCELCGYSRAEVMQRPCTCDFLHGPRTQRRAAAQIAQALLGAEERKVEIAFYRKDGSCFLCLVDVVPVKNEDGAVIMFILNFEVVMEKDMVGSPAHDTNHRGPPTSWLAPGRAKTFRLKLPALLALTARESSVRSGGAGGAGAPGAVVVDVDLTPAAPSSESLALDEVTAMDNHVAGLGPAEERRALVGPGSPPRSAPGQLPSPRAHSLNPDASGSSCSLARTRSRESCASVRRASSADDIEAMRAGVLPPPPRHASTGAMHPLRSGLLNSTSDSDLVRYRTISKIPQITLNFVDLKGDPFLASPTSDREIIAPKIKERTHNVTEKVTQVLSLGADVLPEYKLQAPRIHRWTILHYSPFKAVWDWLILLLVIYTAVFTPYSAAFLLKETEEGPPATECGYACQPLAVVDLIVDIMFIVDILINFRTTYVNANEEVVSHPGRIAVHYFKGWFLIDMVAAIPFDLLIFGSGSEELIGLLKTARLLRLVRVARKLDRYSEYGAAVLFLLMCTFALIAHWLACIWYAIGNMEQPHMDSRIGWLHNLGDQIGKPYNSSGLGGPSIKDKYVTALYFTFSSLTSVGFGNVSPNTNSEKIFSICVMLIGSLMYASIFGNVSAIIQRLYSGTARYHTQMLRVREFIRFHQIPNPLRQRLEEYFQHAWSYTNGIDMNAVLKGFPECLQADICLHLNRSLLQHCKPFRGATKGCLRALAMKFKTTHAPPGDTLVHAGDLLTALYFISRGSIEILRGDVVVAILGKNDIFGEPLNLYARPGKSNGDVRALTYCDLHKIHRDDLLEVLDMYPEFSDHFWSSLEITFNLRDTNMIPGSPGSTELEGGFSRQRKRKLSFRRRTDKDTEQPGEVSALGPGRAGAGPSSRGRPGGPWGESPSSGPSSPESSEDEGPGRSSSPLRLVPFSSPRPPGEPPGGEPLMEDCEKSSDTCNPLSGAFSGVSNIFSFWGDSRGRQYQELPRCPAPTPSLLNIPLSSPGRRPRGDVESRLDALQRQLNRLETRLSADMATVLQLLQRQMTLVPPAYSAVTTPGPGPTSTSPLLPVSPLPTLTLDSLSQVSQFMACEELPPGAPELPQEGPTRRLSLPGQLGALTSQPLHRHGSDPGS", "test": "primary screen, population patch clamp on CHO cells stably expressing hERG", "units": {"hERG current change (%, negative = inhibition) at 1uM": "%"}, "values": [
      {"smiles": "CSc1ccc(Cl)c(C(=O)OCC(=O)NCC(C)C)c1", "hERG current change (%, negative = inhibition) at 1uM": -6.71},
      {"smiles": "CC1=C/C(=N\\OS(=O)(=O)c2ccccc2)C(C(C)C)=CC1=O", "hERG current change (%, negative = inhibition) at 1uM": 7.6},
      {"smiles": "O=S(=O)(NN1CCOCC1)c1ccc(Br)s1", "hERG current change (%, negative = inhibition) at 1uM": 10.3},
      {"smiles": "Cc1cccc(OCCNC(=O)CSc2ccc(C(F)(F)F)cc2[N+](=O)[O-])c1", "hERG current change (%, negative = inhibition) at 1uM": 7.89},
      {"smiles": "COc1cc(/C=C/C(=O)O)cc(S(=O)(=O)Nc2ccc3[nH]c(=O)[nH]c3c2)c1OC", "hERG current change (%, negative = inhibition) at 1uM": 14.7},
      {"smiles": "O=C(NNC(=S)Nc1cccc(C(F)(F)F)c1)c1ccc(Cl)cc1Cl", "hERG current change (%, negative = inhibition) at 1uM": 8.09},
      {"smiles": "CCC(C)(C(=O)NC1CCCCC1)N(C(=O)CNC(C)=O)c1c(C)n(C)n(-c2ccccc2)c1=O", "note": "(centres unmarked)", "hERG current change (%, negative = inhibition) at 1uM": 6.89},
      {"smiles": "c1ccc(-c2nnc(-c3ccccn3)s2)nc1", "hERG current change (%, negative = inhibition) at 1uM": 16.9},
      {"smiles": "Cc1cccc(-c2ccc(NC(=O)C3CCN(CC4CC4)CC3)cc2)c1", "hERG current change (%, negative = inhibition) at 1uM": -5.16},
      {"smiles": "CC(C)(C)OC(=O)NCCCCCc1nnc(SCc2c(F)cccc2Cl)o1", "hERG current change (%, negative = inhibition) at 1uM": 13},
      {"smiles": "Cc1cc(C(=O)CSc2nc3ccc(Cl)cc3[nH]2)c(C)n1Cc1ccco1", "hERG current change (%, negative = inhibition) at 1uM": 10.2},
      {"smiles": "COc1ccc(C(=O)COC(=O)CCN2C(=O)C3C4CC(C(Br)C4Br)C3C2=O)cc1", "note": "(centres unmarked)", "hERG current change (%, negative = inhibition) at 1uM": 13.9},
      {"smiles": "Cc1ccc(S(=O)(=O)N2CCN(C(=O)c3ccc4c(c3)OCO4)CC2)cc1", "hERG current change (%, negative = inhibition) at 1uM": 5.5},
      {"smiles": "CSc1nc2ccsc2c(=O)n1-c1ccccc1", "hERG current change (%, negative = inhibition) at 1uM": 9.33},
      {"smiles": "CCN(CC(=O)Nc1ccccc1C(F)(F)F)C(=O)c1cccc(S(=O)(=O)N2CCN(C)CC2)c1", "hERG current change (%, negative = inhibition) at 1uM": 4.93},
      {"smiles": "C=CCNC(=O)c1ccc(-c2nc(-c3ccc(Cl)c(Cl)c3)cs2)cc1", "hERG current change (%, negative = inhibition) at 1uM": 9.5},
      {"smiles": "Cl.Clc1ccc(CSc2nnc([C@@H]3CCCN3)o2)cc1", "hERG current change (%, negative = inhibition) at 1uM": 2.12},
      {"smiles": "Cc1nnc(SCC(=O)c2cc(C)n(-c3ccc4c(c3)OCO4)c2C)s1", "hERG current change (%, negative = inhibition) at 1uM": 8.02},
      {"smiles": "O=C(NCc1ccccc1)c1c(Cl)nc(Cl)c(Cl)c1Cl", "hERG current change (%, negative = inhibition) at 1uM": 17.3},
      {"smiles": "CCOc1ccc(S(=O)(=O)N2CCOCC2)cc1NS(=O)(=O)c1ccc(OC)c([N+](=O)[O-])c1", "hERG current change (%, negative = inhibition) at 1uM": -13},
      {"smiles": "Cc1nc2nc(SCC(=O)NCCCN3CCCCCC3)nn2c(C)c1Cc1ccccc1Cl", "hERG current change (%, negative = inhibition) at 1uM": -1.29},
      {"smiles": "O=C(OCc1cccc([N+](=O)[O-])c1)c1cnccn1", "hERG current change (%, negative = inhibition) at 1uM": 10.3},
      {"smiles": "COc1ccc(CNC(=O)c2noc3c2CCCC3)cc1", "hERG current change (%, negative = inhibition) at 1uM": 3.2},
      {"smiles": "CCOC(=O)c1cc(C#N)c(Nc2ccccc2OC)nc1C(F)(F)F", "hERG current change (%, negative = inhibition) at 1uM": 10.2},
      {"smiles": "Cc1ccc(CC(=O)NCCc2ccc(S(N)(=O)=O)cc2)cc1", "hERG current change (%, negative = inhibition) at 1uM": 12.1},
      {"smiles": "COc1ccc2oc(=N)c(-c3nnc4n3CCCCC4)cc2c1", "hERG current change (%, negative = inhibition) at 1uM": 1.02},
      {"smiles": "C=C(C)COc1ccc(C2NC(=O)c3ccccc3O2)cc1OCC", "note": "(centres unmarked)", "hERG current change (%, negative = inhibition) at 1uM": 15.7},
      {"smiles": "NCCCNC(=O)c1ccc(/C=N/O)nc1", "hERG current change (%, negative = inhibition) at 1uM": 12.3},
      {"smiles": "COc1ccc(NC(=O)c2cccnc2)cc1OCC(C)C", "hERG current change (%, negative = inhibition) at 1uM": 4.4},
      {"smiles": "CCC(C)NCC(=O)Nc1ccc(S(N)(=O)=O)cc1", "note": "(centres unmarked)", "hERG current change (%, negative = inhibition) at 1uM": 17.7},
      {"smiles": "O=C1CCN(C(=O)c2cccs2)c2ccccc21", "hERG current change (%, negative = inhibition) at 1uM": 0.657},
      {"smiles": "O=C1NC(=Nc2ccc(Cl)cc2)SC1Cc1cc(Cl)ccc1Cl", "note": "(centres unmarked)", "hERG current change (%, negative = inhibition) at 1uM": 21.6},
      {"smiles": "CCOC(=O)Cc1csc(NC(=O)C2CCCCC2C(=O)O)n1", "note": "(centres unmarked)", "hERG current change (%, negative = inhibition) at 1uM": 9.08},
      {"smiles": "CCN(C(=O)COC(=O)/C=C/c1cccc(Br)c1)C1CCS(=O)(=O)C1", "note": "(centres unmarked)", "hERG current change (%, negative = inhibition) at 1uM": -4.71},
      {"smiles": "O=C1CCc2cc(NS(=O)(=O)c3cc(F)ccc3F)cc3c2N1CC3", "hERG current change (%, negative = inhibition) at 1uM": 11.8},
      {"smiles": "COC(=O)c1scc(S(=O)(=O)C(C)C)c1N/N=C(\\C#N)C(=O)c1ccc(Cl)cc1", "hERG current change (%, negative = inhibition) at 1uM": 16.1},
      {"smiles": "O=C(Nc1ccc(Cl)c(Cl)c1)O/N=C/c1ccncc1", "hERG current change (%, negative = inhibition) at 1uM": 10.7},
      {"smiles": "Cc1ccc(C)c(N2CCN(C(=O)CN(C)S(=O)(=O)c3cnc[nH]3)CC2)c1", "hERG current change (%, negative = inhibition) at 1uM": 7.37},
      {"smiles": "COC(=O)c1ccccc1NC(=S)NC(=O)c1ccc2c(c1)OCO2", "hERG current change (%, negative = inhibition) at 1uM": 20.6},
      {"smiles": "O=C(CN1C(=O)c2cccc3cccc1c23)N1CCN(c2ccc(F)cc2)CC1", "hERG current change (%, negative = inhibition) at 1uM": 11.5},
      {"smiles": "CCC(C)N(C(=O)COC(=O)CNC(=O)c1sc2ccccc2c1Cl)C1CCS(=O)(=O)C1", "note": "(centres unmarked)", "hERG current change (%, negative = inhibition) at 1uM": 8.69},
      {"smiles": "CCOC(=O)c1c(NC(=O)CN2C(=O)C(=O)N(C(C)C)C2=O)sc(C)c1CC", "hERG current change (%, negative = inhibition) at 1uM": -4.61},
      {"smiles": "O=C(NCCc1ccc(Cl)cc1)C1CCCN(S(=O)(=O)N2CCCCCC2)C1", "note": "(centres unmarked)", "hERG current change (%, negative = inhibition) at 1uM": 10.3},
      {"smiles": "CCc1ccc(OCC(=O)Nc2ccc(N3CCN(S(C)(=O)=O)CC3)cc2)cc1", "hERG current change (%, negative = inhibition) at 1uM": 20.9},
      {"smiles": "COc1cccc(C(=O)NN2CC(O)=C(c3nc(C)cs3)C2=N)c1", "hERG current change (%, negative = inhibition) at 1uM": 7.96},
      {"smiles": "Cc1cc(S(=O)(=O)ON2C(=O)c3ccccc3C2=O)ccc1F", "hERG current change (%, negative = inhibition) at 1uM": 13.7},
      {"smiles": "Cc1cc(C)c(NS(=O)(=O)c2cccc3cccnc23)c(C)c1", "hERG current change (%, negative = inhibition) at 1uM": -2.12},
      {"smiles": "Cc1ccc2c(CN3CC(C)CC(C)C3)cc(=O)oc2c1C", "note": "(centres unmarked)", "hERG current change (%, negative = inhibition) at 1uM": 9.29},
      {"smiles": "O=C(c1cc2c(s1)-c1ccccc1OC2)N1CCN(c2ccccc2)CC1", "hERG current change (%, negative = inhibition) at 1uM": 12.4},
      {"smiles": "CC1CCCCN1S(=O)(=O)c1ccc(NC(=O)c2cccc(-n3cnnn3)c2)cc1", "note": "(centres unmarked)", "hERG current change (%, negative = inhibition) at 1uM": -0.404},
      {"smiles": "CNC(=O)c1ccccc1NC(=O)c1c(O)c2c([nH]c1=O)CCCC2", "hERG current change (%, negative = inhibition) at 1uM": 8.8},
      {"smiles": "Cc1ccc(C(C)(O)CS(=O)(=O)Cc2ccccc2Cl)cc1", "note": "(centres unmarked)", "hERG current change (%, negative = inhibition) at 1uM": 16.1},
      {"smiles": "CC(C)=CCCC1=CCC2C(=O)NNC(=O)C2C1", "note": "(centres unmarked)", "hERG current change (%, negative = inhibition) at 1uM": 6.59},
      {"smiles": "COC(=O)c1nn(C23CC4CC(CC(C4)C2)C3)c2c1C(=O)N(c1ccc(F)cc1)C2=O", "hERG current change (%, negative = inhibition) at 1uM": -2.06},
      {"smiles": "CCCCNC(=O)N1CCN(c2ccccc2OCC)CC1", "hERG current change (%, negative = inhibition) at 1uM": 6.8},
      {"smiles": "Cc1ccc(C(=O)NCC(=O)OC(C)C(=O)Nc2ccc(N3CCOCC3)cc2)s1", "note": "(centres unmarked)", "hERG current change (%, negative = inhibition) at 1uM": 0.838}
    ]}
  ]
}
